According to the antibiotic and cytotoxicity screens of Wong et al. (2023):
Some of the results follow.

Columns and labels:
[1] = tested on: HSkMC (human skeletal muscle cells); experiment: cytotoxicity call (relative viability < 0.9); conditions: 10 µM
[2] = tested on: HepG2; experiment: cytotoxicity call (relative viability < 0.9); conditions: 10 µM
[3] = tested on: S. aureus RN4220; experiment: growth inhibition call (relative growth <= 0.2); conditions: 50 µM

| SMILES | cytotoxicity call [1] | cytotoxicity call [2] | growth inhibition call [3] |
| --- | --- | --- | --- |
| Cc1occc(=O)c1O [listing 1 of 2 here] | inactive | inactive | inactive |
| C[C@@H]1CN([C@@H](C)CO)C(=O)c2cccc(NC(=O)Nc3cccc4ccccc34)c2O[C@H]1CN(C)S(=O)(=O)c1ccc(F)cc1 | inactive | inactive | inactive |
| C[C@@H]1CN([C@@H](C)CO)C(=O)c2cc(NC(=O)Nc3ccc(C(F)(F)F)cc3)ccc2O[C@@H]1CN(C)Cc1ccc(-c2ccccc2)cc1 | active | active | inactive |
| N[C@@H](c1ccncc1)c1ccc(Cl)cc1 | inactive | inactive | inactive |
| C[C@H](CO)N1C[C@H](C)[C@@H](CN(C)S(=O)(=O)c2ccccc2)Oc2ccc(NC(=O)c3ccncc3)cc2C1=O | inactive | inactive | inactive |
| C[C@@H]1CN([C@@H](C)CO)S(=O)(=O)c2ccc(C3=CCCCC3)cc2O[C@@H]1CN(C)Cc1cncnc1 | inactive | inactive | inactive |
| OCc1cc2c(F)cccc2s1 | inactive | inactive | inactive |
| C[C@@H]1CCCCO[C@H](CN(C)S(=O)(=O)c2ccc(Cl)cc2)[C@H](C)CN([C@H](C)CO)C(=O)c2cc(NS(=O)(=O)c3cccs3)ccc2O1 | inactive | inactive | inactive |
| C[C@H](CO)N1C[C@H](C)[C@H](CN(C)Cc2ccc(C(F)(F)F)cc2)Oc2ccc(NC(=O)CCCCCC(=O)Nc3ccccc3N)cc2CC1=O | inactive | active | inactive |
| COc1ccc(CN(C)C[C@H]2OCCCC[C@@H](C)Oc3ccc(NC(=O)Nc4ccc(F)cc4)cc3C(=O)N([C@H](C)CO)C[C@@H]2C)cc1 | inactive | inactive | inactive |
| Cc1ccc(/C=c2\sc3ncnn3c2=O)o1 | inactive | inactive | inactive |
| C[C@H]1CN([C@@H](C)CO)C(=O)c2cc(NS(=O)(=O)c3cn(C)cn3)ccc2O[C@H]1CN(C)CC1CC1 | inactive | inactive | inactive |
| C[C@@H]1CN([C@H](C)CO)C(=O)c2cc(NC(=O)Nc3ccccc3)ccc2O[C@@H](C)CCCCO[C@@H]1CN(C)Cc1ccncc1 | inactive | inactive | inactive |
| COc1ccc(CN(C)C[C@@H]2Oc3ccc(NC(=O)CCN4CCOCC4)cc3CC(=O)N([C@@H](C)CO)C[C@@H]2C)cc1 | inactive | inactive | inactive |
| C[C@H]1CN([C@@H](C)CO)C(=O)c2cc(C#CCC3CCCC3)cnc2O[C@H]1CN(C)C(=O)c1cnccn1 | inactive | inactive | inactive |
| C[C@@H]1CCCCO[C@@H](CN(C)C(=O)Nc2ccc(F)cc2)[C@@H](C)CN([C@@H](C)CO)C(=O)c2cc(NC(=O)Cc3ccccc3)ccc2O1 | inactive | inactive | inactive |
| Cc1ccc(S(=O)(=O)Nc2ccc3c(c2)CC(=O)N([C@H](C)CO)C[C@H](C)[C@H](CN(C)S(=O)(=O)c2ccc(F)cc2)O3)cc1 | inactive | inactive | inactive |
| O=C(N[C@@H]1C=C[C@H](CC(=O)N2CCOCC2)O[C@@H]1CO)c1ccccn1 | inactive | inactive | inactive |
| O=C(O)CN(CCc1ccccc1)CC(=O)O | inactive | inactive | inactive |
| Cc1occc(=O)c1O [listing 2 of 2 here] | inactive | inactive | inactive |
| Cc1cn([C@@H]2O[C@H](CO)[C@@H](O)[C@H]2O)c(=O)nc1N | inactive | inactive | inactive |
| C[C@@H]1CN([C@@H](C)CO)C(=O)c2cccc(NC(=O)c3cnccn3)c2O[C@@H]1CN(C)C(=O)NC1CCCCC1 | inactive | inactive | inactive |
| C[C@H]1CN([C@@H](C)CO)C(=O)c2cc(NC(=O)Nc3ccc(C(F)(F)F)cc3)ccc2O[C@H]1CN(C)Cc1ccncc1 | inactive | inactive | inactive |
| Cc1noc(C)c1NC(=O)N(C)C[C@H]1Oc2c(NC(=O)C3CC3)cccc2C(=O)N([C@H](C)CO)C[C@@H]1C | inactive | inactive | inactive |
| C[C@@H]1CN([C@@H](C)CO)C(=O)Cc2cc(NS(C)(=O)=O)ccc2O[C@@H]1CN(C)C(=O)NC1CCCCC1 | inactive | inactive | inactive |
| C[C@@H]1CN([C@H](C)CO)C(=O)c2cccc(NS(=O)(=O)c3ccccc3)c2O[C@H]1CN(C)S(=O)(=O)c1ccc(F)cc1 | inactive | inactive | inactive |
| C[C@H](CO)N1C[C@H](C)[C@@H](CN(C)C(=O)c2cccc(F)c2)Oc2cc(C#CC3CC3)ccc2S1(=O)=O | inactive | inactive | inactive |
| CCCCCCCCCCCCCC(=O)OC(C)C | inactive | inactive | inactive |
